The campaign covered roughly 310,000 compounds. About 14,000 (4.5%) showed an effect of 50% or more. Effects have a minus sign here. This is one part of the list.
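Further: peak tail current of the secondary pulse compared with the same well before compound.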

The test deals with human ether-à-go-go-related gene (hERG) potassium channel (human, UniProt Q12809). Kind of test: primary screen, population patch clamp on CHO cells stably expressing hERG.
Chain of human ether-à-go-go-related gene (hERG) potassium channel (Q12809 whole entry, looked up): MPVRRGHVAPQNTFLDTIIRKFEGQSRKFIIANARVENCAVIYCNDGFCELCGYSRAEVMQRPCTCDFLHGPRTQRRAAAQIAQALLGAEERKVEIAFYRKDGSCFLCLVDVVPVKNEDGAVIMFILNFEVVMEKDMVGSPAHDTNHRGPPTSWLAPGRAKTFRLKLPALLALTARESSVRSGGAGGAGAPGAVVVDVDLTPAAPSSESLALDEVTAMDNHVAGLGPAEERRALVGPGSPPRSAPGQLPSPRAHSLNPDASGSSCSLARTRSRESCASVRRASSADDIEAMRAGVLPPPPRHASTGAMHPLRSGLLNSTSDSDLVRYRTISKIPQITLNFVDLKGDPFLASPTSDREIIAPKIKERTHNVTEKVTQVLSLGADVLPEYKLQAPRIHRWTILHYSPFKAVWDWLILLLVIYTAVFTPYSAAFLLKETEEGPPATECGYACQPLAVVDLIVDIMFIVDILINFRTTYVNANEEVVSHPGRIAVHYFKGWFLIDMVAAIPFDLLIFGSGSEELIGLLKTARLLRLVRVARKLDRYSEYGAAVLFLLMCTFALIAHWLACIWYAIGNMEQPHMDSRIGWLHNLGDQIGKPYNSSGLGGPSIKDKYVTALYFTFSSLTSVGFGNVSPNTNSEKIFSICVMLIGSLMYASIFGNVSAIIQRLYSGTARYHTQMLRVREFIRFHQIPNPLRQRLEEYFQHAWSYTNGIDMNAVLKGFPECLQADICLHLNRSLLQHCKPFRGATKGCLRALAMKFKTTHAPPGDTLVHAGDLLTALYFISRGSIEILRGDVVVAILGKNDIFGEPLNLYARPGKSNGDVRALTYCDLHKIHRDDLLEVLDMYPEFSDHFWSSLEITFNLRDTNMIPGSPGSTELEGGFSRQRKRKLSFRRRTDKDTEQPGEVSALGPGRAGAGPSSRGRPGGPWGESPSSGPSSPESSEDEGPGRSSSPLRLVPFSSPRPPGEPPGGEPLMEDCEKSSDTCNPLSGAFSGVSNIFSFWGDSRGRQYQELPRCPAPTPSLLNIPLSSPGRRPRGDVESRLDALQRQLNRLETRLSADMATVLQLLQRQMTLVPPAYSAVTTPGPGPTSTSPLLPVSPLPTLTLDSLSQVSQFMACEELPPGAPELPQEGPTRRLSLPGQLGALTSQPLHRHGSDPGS
For the compound `CC(C)(C)OC(=O)N1CCC[C@H]1c1nnc(SCc2ccc(Cl)cc2)o1`, the “hERG current change (%, negative = inhibition) at 10uM” value is -20.8%. With `C=CCn1c(SCC(=O)Nc2cccc(C)c2)nnc1-c1cnccn1` the figure was -71.9%; with `COCCNC(=O)c1onc(CSc2ccc(C(C)C)cc2)c1C(=O)O`, 5.52%; with `COc1ccc(/C=N\NC(=O)c2cccc([N+](=O)[O-])c2)cc1Cn1cc([N+](=O)[O-])cn1`, -35.8%. In the case of `CN(C)C(=O)N1CCN(C(=O)N2CCOCC2)CC1` it was 18.8%; in that of `CN1C(=O)C(=Cc2ccccc2Oc2ccc(Cl)c(F)c2)C(=O)N(C)C1=O`, 5.34%; in that of `Cc1cccc(CN2CCN(CCCc3ccccc3)CC2)c1.O=C(O)C(=O)O`, -75.4%. With `O=C(Nc1nncs1)c1ccc(Br)c(S(=O)(=O)N2CCCC2)c1` the figure was 8.33%; with `CC(=O)Cc1nsc(NC(=O)c2ccc(-c3ccc(F)cc3)o2)n1`, -17.5%. For the compound `COc1cc(/C=C2\Oc3cc(O)ccc3C2=O)ccc1O`, the “hERG current change (%, negative = inhibition) at 10uM” value turned out to be 8.22%. `COc1ccc(OC)c(NC(=O)CCC(=O)Nc2nnc(C(C)C)s2)c1`: the “hERG current change (%, negative = inhibition) at 10uM” value amounted to 16%. In the case of `CC(NC(=O)c1ccc(CS(=O)(=O)c2cccc(C(F)(F)F)c2)o1)c1ccc2c(c1)OCCO2` (stereo not shown) it was -7.57%; in that of `CC(C)[C@H](NC(=O)c1ccccc1)C(=O)OCC(=O)c1ccc(S(=O)(=O)N2CCCCC2)cc1`, -23.8%. With `FC(F)(F)c1cc(N2CCOCC2)nc(-c2ccccc2)n1` the figure was -0.159%.

With `O=C(O)Cc1cn(Cc2ccc(F)cc2)c2ccccc12`, the “hERG current change (%, negative = inhibition) at 10uM” value is on record as 7.35%.

For `CC(C)(C)c1ccc(C(=O)NCCC(=O)NCc2ccco2)cc1`, the “hERG current change (%, negative = inhibition) at 10uM” value is -36.1%. In the case of `Cc1ccc(NC(=O)NNC(=O)C2CC(c3cccs3)=NO2)cc1` (stereo not shown) it was 24.8%; in that of `CCCC(=O)Nc1ccc(Cl)c(NC(=O)c2ccc([N+](=O)[O-])cc2Cl)c1`, -51.2%. In the case of `O=C(c1ccc([N+](=O)[O-])cc1)N1CCSC1c1cccc(Cl)c1` (stereo not shown) it was -69.3%; in that of `O=C(Nc1nc2ccc(SC(F)F)cc2s1)c1ccc2c(c1)S(=O)(=O)c1ccccc1C2=O`, -12.5%; in that of `CCOC(=O)C1(Cc2ccccc2C)CCCN(C(=O)CCc2c(C)noc2C)C1` (stereo not shown), -29.3%.

With `Cc1ccc(S(=O)(=O)N2CCN(C(=O)CN3C(=O)NC4(CCCC4)C3=O)CC2)c(C)c1`, the “hERG current change (%, negative = inhibition) at 10uM” value was -1.95%.

On to `CCOC(=O)c1ccc(-n2c(N)c(C(=O)NCc3ccco3)sc2=S)cc1`, for which the “hERG current change (%, negative = inhibition) at 10uM” value was found to be 5.44%. In the case of `O=[N+]([O-])c1cc(/C=N/OCc2c(Cl)cccc2Cl)ccc1N1CCOCC1` it was -3.25%; in that of `COc1cc(OC)cc(-c2nnc(NC(=O)Cc3ccc(F)cc3)o2)c1`, 23.8%; in that of `Cc1ccc(S(=O)(=O)NC(=O)Nc2ccc(Cl)cn2)cc1`, 0.493%. In the case of `CCOC(=O)c1[nH]c2ccccc2c1NC(=O)CCN1CCN(C(=O)OCC)CC1` it was -11.7%. In the case of `CCCc1nnc(NC(=O)OCC)s1` it was 24.1%; in that of `Cn1ncc2c(NCc3cccc(C(F)(F)F)c3)c(C(=O)O)cnc21`, 24.3%. Turning to `C/C(=N\NC(=O)COc1ccccc1-c1ccccc1)c1ccccn1`, the “hERG current change (%, negative = inhibition) at 10uM” value was -6.93%. With `CC(=O)Oc1ccc(-c2cc3ccc(OC(C)=O)cc3oc2=O)cc1` the figure was 6.12%. With `COc1ccc(/C=C/C2=NNC(=O)CC2)cc1` the figure was 7.41%; with `CC(=O)N1CCC(C(=O)c2ccc(Cl)cc2)CC1`, -0.317%. In the case of `CN1C(=O)NC(=O)C(C)(C2=CCCCC2)C1=O` (stereo not shown) it was 18%; in that of `COC(=O)c1ccc(NC(=O)C2CCN(C(=O)c3cc(OC)c(OC)c(OC)c3)CC2)cc1`, 6.73%; in that of `CCC1Oc2ccccc2C(=O)N(CC(=O)c2ccc3c(c2)OCCO3)C1=O` (stereo not shown), 0.31%. As for `O=C(NCC(=O)N1CCN(S(=O)(=O)c2ccccc2)CC1)c1ccc(Br)o1`, the “hERG current change (%, negative = inhibition) at 10uM” value is reported as -21.5%. In the case of `O=c1cc(N2CCc3ccccc3C2)[nH]c(=O)n1-c1ccc(Br)cc1` it was 11.5%; in that of `Cc1cc(C)c([N+](=O)[O-])cc1NC(=O)CCS(=O)(=O)c1ccccc1`, -13.4%.

For the compound `O=C(Nc1ccc(F)cc1)Nc1cnccn1`, the “hERG current change (%, negative = inhibition) at 10uM” value was found to be 15.9%. With `COc1ccc(O)c(/C=N/N2CCCCC2)c1`, the “hERG current change (%, negative = inhibition) at 10uM” value was found to be 10.8%. In the case of `CCOC(=O)C1=C(COC(=O)C(CC)Oc2ccccc2)NC(=O)NC1C` (stereo not shown), the “hERG current change (%, negative = inhibition) at 10uM” value is on record as -2.79%. With `COc1ccccc1N1CCN(C(=O)CN(Cc2ccccc2)S(C)(=O)=O)CC1` the figure was -14.2%.

Values taken from paper PMC4336329 (PLoS ONE, 2015).
